The results in this text go back to paper PMC6919601, “Identification of Plasmodium dipeptidyl aminopeptidase allosteric inhibitors by high throughput screening” (PLoS ONE, 2019).

Several values for one entry are separate records, joined by “and”; a condition that tells them apart may be missing. Equal entries are not always repeated. The whole screen tested about 110,000 compounds, of which about 230 (0.21%) showed an effect of 50% or more. The list shows a part of the results.
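Note: 30 min substrate incubation versus DMSO and 10 µM JCP410 controls.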

For the test, the target named is DPAP1 (Plasmodium falciparum, UniProt Q8IIJ9). The experiment in a line: primary screen, percent inhibition; read by cleavage of a fluorogenic dipeptide substrate; higher = more effect of the substance. The arrangement: species or system P. falciparum D10 trophozoite lysates; single well.
Sequence of DPAP1 (Q8IIJ9 whole entry, looked up): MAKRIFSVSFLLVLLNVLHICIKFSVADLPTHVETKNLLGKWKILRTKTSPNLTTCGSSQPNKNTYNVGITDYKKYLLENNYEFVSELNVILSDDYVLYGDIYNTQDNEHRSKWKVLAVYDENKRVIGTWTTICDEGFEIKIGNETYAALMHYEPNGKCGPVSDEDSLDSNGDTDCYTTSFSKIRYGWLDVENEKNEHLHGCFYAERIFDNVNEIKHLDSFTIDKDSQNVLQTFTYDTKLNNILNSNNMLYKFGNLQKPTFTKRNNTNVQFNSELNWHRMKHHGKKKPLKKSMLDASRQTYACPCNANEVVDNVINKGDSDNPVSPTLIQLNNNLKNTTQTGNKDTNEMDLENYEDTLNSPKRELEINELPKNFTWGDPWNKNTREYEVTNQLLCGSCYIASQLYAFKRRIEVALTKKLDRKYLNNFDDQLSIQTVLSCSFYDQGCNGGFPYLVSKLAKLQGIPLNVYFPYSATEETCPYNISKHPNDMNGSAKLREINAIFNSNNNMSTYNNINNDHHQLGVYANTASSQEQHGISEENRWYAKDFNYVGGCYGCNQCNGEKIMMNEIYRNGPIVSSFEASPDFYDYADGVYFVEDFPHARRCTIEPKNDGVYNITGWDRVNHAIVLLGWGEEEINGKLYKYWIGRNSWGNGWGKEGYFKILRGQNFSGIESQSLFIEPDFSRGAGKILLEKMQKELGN
For the compound `CC1CN(C(=O)c2ccc(COc3ccc(C(C)C)cc3)o2)CC(C)O1` (stereo not drawn), the “% Inhibition @ 10 uM” value was determined as 0.413%.
As for `CC(C)OP(=O)(OC(C)C)C(Nc1ccccc1)c1ccccc1O` (stereo not drawn), the figure is 0.937%.
On to `C=C(C)CN1CCN(c2cc(C)c(C#N)c3nc4ccccc4n23)CC1`, for which the “% Inhibition @ 10 uM” value is reported as -1.93%.
To `COc1ccc(N2CCN(C(=O)CN(C3CCCCC3)S(C)(=O)=O)CC2)cc1` belongs 1.17%.
With `COCCCNC(=O)CNS(=O)(=O)c1ccc2nc(C)sc2c1`, the “% Inhibition @ 10 uM” value was -2.45%.
Consider `c1coc(CCC2=NCCn3cccc32)c1`, for which the “% Inhibition @ 10 uM” value was determined as 3.16%.
To `CCN(CC)CCCNC(=O)c1ccc(C)cc1` belongs 0.214%.
To `Cc1ccsc1CN(CCCN(C)C)CCCN(C)C` belongs -1.5%; to `Cc1cc(OCC(=O)Nc2ccc(O)cc2C(=O)O)cc(C)c1Cl`, -1.82%.
Regarding `COc1ccc(OC)c2c(C)cc(N3CCN(c4cc(C)ccc4C)CC3)nc12`, the “% Inhibition @ 10 uM” value is reported as -7.5%.
As for `CCOC(=O)C1CCN(C2CCN(Cc3ccccc3)CC2)CC1`, the “% Inhibition @ 10 uM” value is recorded as -2.95%.
To `CCN(CC)c1ccc(CN2CCCC(O)C2)cc1` (stereo not drawn) belongs 0.472%.
To `COC(=O)c1cc(S(=O)(=O)N(C)C2CCCCC2)c[nH]1` belongs 9.77%; to `Cc1ccc(-n2ncc(C(=O)Nc3nccs3)c2C2CCN(C(=O)OC(C)(C)C)CC2)cc1`, 1.58%; to `COCCN1C(=O)c2ccccc2C(C(=O)Nc2ccccn2)C1c1cn(C)c2ccccc12` (stereo not drawn), 2.97%.
For `C=C(C)C1CC=C(C)C(O)(CSc2nccn2C)C1` (stereo not drawn), the “% Inhibition @ 10 uM” value is reported as 4.01%.
On to `N#C/C(=C\c1c(Oc2ccccc2Cl)nc2ccccn2c1=O)C(=O)NC1CCS(=O)(=O)C1` (stereo not drawn), for which the “% Inhibition @ 10 uM” value is reported as -8.55%.
To `Cc1ccccc1/C=C/c1nn2c(-c3cccnc3)nnc2s1` belongs -1.31%; to `COC(=O)CCC(=O)c1cc(C(C)(C)C)sc1C(C)(C)C`, -3.55%.
As for `Nc1ccccc1C(=O)N1CCN(c2cccc(Cl)c2)CC1`, the “% Inhibition @ 10 uM” value is -0.318%.
To `COc1ccc(NC(=O)c2cccc3ccccc23)cc1OC` belongs 3.53%; to `Cc1[nH]c2ccccc2c1CCNC(=O)COc1ccc(F)cc1`, 1.93%.
To `CCc1nn(CC(=O)NCc2ccco2)c(=O)c2cc3ccccc3n12` belongs -3.79%; to `COc1ccc(Cl)cc1N(CC(=O)Nc1cc(C)ccc1C)S(C)(=O)=O`, 1.92% and 2.08%.
As for `CCOc1c(Br)cc(C2C(C(=O)OC)=CN(C(C)C)C=C2C(=O)OC)cc1OC`, the “% Inhibition @ 10 uM” value stood at 6.48%.
To `Clc1cccc(-c2nn3cnnc3s2)c1` belongs 2.29%.
To `Cc1nc2c(=O)oc3ccccc3c2o1` belongs -4.47%; to `CCC(C(=O)N1CCCCC1)n1c2ccccc2c2cnnc(O)c21` (stereo not drawn), -0.281%; to `C=CCOc1ccc(C2c3c(oc4ccc(C)cc4c3=O)C(=O)N2CCCN(C)C)cc1OCC` (stereo not drawn), -2.91%.
To `O=C(NCc1ccccc1)N1CCC2(CC1)Oc1ccccc1C(=O)N2Cc1ccc(F)cc1` belongs -4.68%; to `COc1cccc(OC)c1C(=O)n1nnc2ccccc21`, -1.03%; to `CN(C(=O)Cn1c(=O)n(CC(=O)NCCc2ccccc2)c(=O)c2sccc21)C1CCCCC1`, -2.47%.
On to `Cc1cc([N+](=O)[O-])ccc1NC(=O)c1ccc([N+](=O)[O-])cc1`, for which the “% Inhibition @ 10 uM” value was -5.65%.
As for `Cn1c(=O)c2c(nc(Sc3ncn(Cc4ccccc4Br)n3)n2C)n(C)c1=O`, the figure is -2.54%.
To `O=C1c2ccccc2C(Nc2cccnc2)N1Cc1ccccc1Cl` (stereo not drawn) belongs -2.83%; to `O=C(O)C1CCCN1C(=O)c1cccc2ccccc12` (stereo not drawn), 4.22%; to `OC1=C2C(=Nc3ccccc3NC2c2cccnc2)CC(c2ccccc2Cl)C1` (stereo not drawn), 3.92%.
To `CC(=O)N1c2ccccc2N=C2CC(C)(C)CC(O)=C2C1c1ccc2c(c1)OCO2` (stereo not drawn) belongs -5.07%.
Turning to `O=C(NC1=NCCS1)c1cccc(NC(=O)c2ccco2)c1`, the “% Inhibition @ 10 uM” value is -16%.
As for `C=CC[n+]1ccc(COC(=O)Nc2ccc(Cl)c(Cl)c2)cc1`, the figure is 1.02%.
As for `O=C1CC(N2CCN(c3ccccn3)CC2)C(=O)N1CCc1ccccc1` (stereo not drawn), the figure is 1.76%; as for `CC(=O)Nc1ccc(S(=O)(=O)N2CCC(Cc3ccccc3)CC2)cc1`, -0.712%.
As for `CCOC(=O)C1=CN(Cc2ccc(F)cc2)C=C(C(=O)OCC)C1c1ccc(C)s1`, the figure is -1.48%; as for `COc1cccc(S(=O)(=O)NCc2ccc(C(=O)NCc3ccccn3)cc2)c1`, -3.37%; as for `O=C(NC(CCc1nc2ccccc2[nH]1)C(=O)O)c1ccccc1` (stereo not drawn), -6.68%.
With `N#CCNC(=O)[C@H](CC1CCCCC1)NC(=O)c1cc2ccccc2s1`, the “% Inhibition @ 10 uM” value is -1.83%.
To `Cc1onc(-c2ccccc2)c1C(=O)N(Cc1ccccc1)Cc1ccccc1` belongs 3.94%.
As for `CC(C)CC(NS(=O)(=O)c1ccc2nc(O)c(O)nc2c1)C(=O)O` (stereo not drawn), the figure is 4.96%; as for `CC(=O)Nc1ccccc1C(=O)Nc1ccc(C)cc1`, -1.62%; as for `CCN1CCC(N(C)C2CCCCC2)CC1`, -9.95%.
On to `Cc1sc(NC(=O)c2cccc(Cn3cc(Br)cn3)c2)nc1-c1ccccc1`, for which the “% Inhibition @ 10 uM” value is recorded as -3.13%.
To `CCOC(=O)c1c(N)n(-c2cccc(S(N)(=O)=O)c2)c2nc3ccccc3nc12` belongs 3.71%.
Consider `Cc1nc2ccc(C(=O)N3CCSCC3)cc2s1`, for which the “% Inhibition @ 10 uM” value is given as -1.27%.
As for `O=C(Nc1cccnc1Cl)c1cc(-c2ccc3c(c2)OCO3)on1`, the figure is -0.591%; as for `CCN1CCN(C(=O)c2cnn(-c3ccccc3Cl)c2NC(C)=O)CC1`, 0.727%.
To `COc1ccc(C(=O)N2CC(C)CC(C)C2)cc1OC` (stereo not drawn) belongs -8.33%; to `O=C(Nc1ccc(Br)cc1)c1cc(Cl)cc(Cl)c1O`, 2.73%.
In the case of `CC1CN(C2=NC(=O)/C(=C/c3ccc(Cl)c(Cl)c3)S2)CC(C)O1` (stereo not drawn), the “% Inhibition @ 10 uM” value is given as -2.14%.
To `O=C(CSCc1cnn(-c2ccccc2)c1-n1cccc1)N1CCN(C2CCCCC2)CC1` belongs 2.27%; to `c1ccc(CNc2nc(N3CCOCC3)nc(N3CCOCC3)n2)cc1`, -2.51%; to `CCc1cccc(-n2nnc(-c3nsc(NC(=O)c4cc(OC)cc(OC)c4)n3)c2C)c1`, 1.61%.
For `Cc1ccc(C)c(OCC(=O)Nc2ccc(S(=O)(=O)N3CCOCC3)cc2)c1`, the “% Inhibition @ 10 uM” value is recorded as -3.43%.
To `Cc1nn(Cc2ccccc2)c(C)c1/C=C1\Sc2ccccc2C1=O` belongs -9.33%; to `N#CSCC(=O)N1c2ccccc2Sc2ccc(C(F)(F)F)cc21`, 10.1%.
To `CC(CNC(=O)C(C)n1c2ccccc2c2cnnc(O)c21)c1ccccc1` (stereo not drawn) belongs -2%; to `O=C1CSC(c2ccc3c(c2)OCO3)c2c(-c3ccccc3)nn(-c3ccccc3)c2N1` (stereo not drawn), -3.28%.
To `O=C(c1ccccc1)N1CCN(C2CCC(c3ccccc3)CC2)CC1` (stereo not drawn) belongs 2.05%; to `COC(=O)C1=CN(C(C)C)C=C(C(=O)OC)C1c1cc(OC)ccc1OC`, 1.86%; to `Cc1cc(C)cc(NS(=O)(=O)c2cc(Cl)ccc2Cl)c1`, 0.526%.
In the case of `CCc1ccc(OCC(=O)N2CCOCC2)cc1`, the “% Inhibition @ 10 uM” value is given as 1.84%.
To `CCOc1ccc(OCc2ccc(C(=O)N3N=C(C(F)F)CC3(O)C(F)F)o2)cc1` (stereo not drawn) belongs 1.87%.
To `CCn1c(SCC(=O)Nc2cccc(F)c2)nc2c1c(=O)n(C)c(=O)n2C` belongs -1.84%.
To `Cc1cc(=O)oc2cc(OCc3ccc(F)cc3)c(Cl)cc12` belongs 3.06%; to `CCOc1ccc(CSc2nc(C)cc(C)n2)cc1-n1nc2ccccc2n1`, 0.776%.
Regarding `Cc1cc(S(=O)(=O)N2CCC(c3nnc(-c4ccccc4C)o3)CC2)ccc1F`, the “% Inhibition @ 10 uM” value worked out at 0.66%.
Take `COc1cc(C2C(C(C)=O)=C(O)C(=O)N2c2ccc(Br)cc2)ccc1O` (stereo not drawn): the “% Inhibition @ 10 uM” value came out at 6.79%.
As for `CC(NC(=O)/C=C/C(=O)O)c1ccccc1` (stereo not drawn), the figure is 0.968% and -1.03%; as for `CC1(C)CC(=O)C2=C(C1)N=C(S)C(C#N)C2c1ccccc1[N+](=O)[O-]` (stereo not drawn), 20%.
Consider `Cc1c(C(=O)NCCCc2ccccc2)oc2ccc3c(c12)C(=O)CC(C)(C)O3`, for which the “% Inhibition @ 10 uM” value is listed as 1.72%.
To `CN1C(C)(C)CC(=NOC(=O)c2ccccc2)CC1(C)C` belongs 0.685%; to `COc1ccc(N2CCN(S(=O)(=O)c3cccc(C)c3)CC2)cc1`, -5.51%.
To `O=C(O)CN(CC(=O)O)S(=O)(=O)c1ccccc1` belongs 2.06%.
As for `CCOc1cc(C2c3c(oc4ccccc4c3=O)C(=O)N2c2nncs2)ccc1OCCC(C)C` (stereo not drawn), the figure is 2.1%; as for `COc1ccc(/C=C2\SC(=S)N(c3ccc([N+](=O)[O-])cc3)C2=O)cc1O`, 4.52%.
As to `CC(C)CC(NC(N)=O)c1ccccc1` (stereo not drawn), the “% Inhibition @ 10 uM” value was -5.11%.
To `COC(=O)c1cn(-c2ccccc2)nc1-c1cccnc1` belongs -5.15%; to `CCc1ccc(C(=O)CC2(O)C(=O)N(CCCC#N)c3ccccc32)cc1` (stereo not drawn), -2.75%.
Consider `CN1CCC=C(Cc2nnc(O)c3ccccc23)C1`, for which the “% Inhibition @ 10 uM” value amounted to 2.73%.
`N#CCNC(=O)[C@H](CS(=O)(=O)Cc1ccccc1)NC(=O)c1ccc2ccccc2c1`: the “% Inhibition @ 10 uM” value is reported as -1.5%.
Take `O=C(Nc1ccc(-c2nc3ccccc3o2)cc1)c1cncc(Br)c1`: the “% Inhibition @ 10 uM” value was found to be 21.3%.
To `N#CC1=C(N)N2CCSC2=NC1(C(F)(F)F)C(F)(F)F` belongs -3.53%; to `CCOc1ccc2nc(NC(=O)C(Cc3ccccc3)n3cccc3)sc2c1` (stereo not drawn), -4.21%.
On to `CCOc1ccc(OCc2ccc(C(=O)Nc3ccc(Cl)cn3)o2)cc1`, for which the “% Inhibition @ 10 uM” value is -0.822%.
As for `O=C(O)c1ccc2c(c1)C(=O)N(c1cccc(N3C(=O)c4ccc(C(=O)O)cc4C3=O)c1)C2=O`, the figure is 4.8%; as for `COc1ccc(NC(=O)Cc2ccccc2)c(OC)c1`, 0.135%; as for `O=C(c1ccc(S(=O)(=O)N2CCOCC2)cc1)N1CCCCC1`, -2.63%.
On to `O=C1c2[nH]nc(-c3ccccc3O)c2C(c2ccccc2)N1CCCO` (stereo not drawn), for which the “% Inhibition @ 10 uM” value is given as 0.366%.
As for `COc1cccc(C2CC(c3cccs3)=NN2C(C)=O)c1OC` (stereo not drawn), the figure is 9.77%.
Turning to `CCOc1ccc(CN2CCN(c3ccc(Cl)cc3)CC2)cc1`, the “% Inhibition @ 10 uM” value is listed as -1.77%.
